# From the supplement of paper PMC8728848
# The other results are listed elsewhere or left out.
# B1: SGC, Q9M345 (protein)
# chain: QNLNFTYNGFHPPLTDISLQGLATVTPNGLLKLTNTSVQKTGHAFCTERIRFKDSQNGNVSSFSTTFVFAIHSQIPTLSGHGIAFVVAPTLGLPFALPSQYIGLFNISNNGNDTNHIFAVEFDTIQSSEFGDPNDNHVGIDLNGLRSANYSTAGYRDDHDKFQNLSLISRKRIQVWIDYDNRSHRIDVTVAPFDSDKPRKPLVSYVRDLSSILLEDMYVGFSSATGSVLSEHFLVGWSFRLNGEAPMLSLSKLPKLPRFEPRRIS
# How the values were obtained:
# Assay in all cases: glycan array binding signal (z-score within array); higher = stronger binding
# Conditions in all cases: glycan notation: IUPAC condensed, linker removed
# [1] = target: Fuc(a1-2)Gal(b1-4)GlcNAc(b1-3)Gal(b1-4)GlcNAc(b1-2)Man(a1-3)[Fuc(a1-2)Gal(b1-4)GlcNAc(b1-3)Gal(b1-4)GlcNAc(b1-2)Man(a1-6)]Man(b1-4)GlcNAc(b1-4)GlcNAc
# Summary of the method: (§1)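 Columns mapping to the same glycan were averaged after glycan names were converted to IUPAC-condensed notation. The data come from 3228 arrays in the Consortium for Functional Glycomics database, limited to those with an available protein sequence. Binding is reported as a within-array Z-score averaged across arrays of one protein sequence and across linkers.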
# [2] = target: Fuc(a1-2)Gal(b1-4)GlcNAc(b1-3)Gal(b1-4)GlcNAc(b1-3)Gal(b1-4)GlcNAc
# Summary of the method: as §1
# [3] = target: Fuc(a1-2)Gal(b1-4)GlcNAc(b1-3)GalNAc
# Summary of the method: as §1
# [4] = target: Fuc(a1-2)Gal(b1-4)GlcNAc(b1-3)[Fuc(a1-2)Gal(b1-4)GlcNAc(b1-6)]GalNAc
# Summary of the method: as §1
# [5] = target: Fuc(a1-2)Gal(b1-4)GlcNAc(b1-3)[Fuc(a1-3)[Gal(b1-4)]GlcNAc(b1-6)]Gal(b1-4)Glc
# Summary of the method: as §1
# [6] = target: Fuc(a1-2)Gal(b1-4)GlcNAc(b1-6)GalNAc
# Summary of the method: as §1
# [7] = target: Fuc(a1-2)Gal(b1-4)GlcNAc6S
# Summary of the method: as §1
# [8] = target: Fuc(a1-2)Gal(b1-4)[Fuc(a1-3)]GlcNAc
# Summary of the method: as §1
# [9] = target: Fuc(a1-2)Gal(b1-4)[Fuc(a1-3)]GlcNAc(b1-2)Man(a1-3)[Fuc(a1-2)Gal(b1-4)[Fuc(a1-3)]GlcNAc(b1-2)Man(a1-6)]Man(b1-4)GlcNAc(b1-4)[Fuc(a1-6)]GlcNAc
# Summary of the method: as §1
# [10] = target: Fuc(a1-2)Gal(b1-4)[Fuc(a1-3)]GlcNAc(b1-2)[Fuc(a1-2)Gal(b1-4)[Fuc(a1-3)]GlcNAc(b1-4)]Man(a1-3)[Fuc(a1-2)Gal(b1-4)[Fuc(a1-3)]GlcNAc(b1-2)Man(a1-6)]Man(b1-4)GlcNAc(b1-4)GlcNAc
# Summary of the method: as §1
# [11] = target: Fuc(a1-2)Gal(b1-4)[Fuc(a1-3)]GlcNAc(b1-3)Gal(b1-4)[Fuc(a1-3)]GlcNAc
# Summary of the method: as §1
# [12] = target: Fuc(a1-2)Gal(b1-4)[Fuc(a1-3)]GlcNAc(b1-3)Gal(b1-4)[Fuc(a1-3)]GlcNAc(b1-3)Gal(b1-4)[Fuc(a1-3)]GlcNAc
# Summary of the method: as §1
# [13] = target: Fuc(a1-2)Gal(b1-4)[Fuc(a1-3)]GlcNAc(b1-3)GalNAc
# Summary of the method: as §1
# [14] = target: Fuc(a1-2)Gal(b1-4)[Fuc(a1-3)]GlcNAc(b1-3)[Neu5Ac(a2-6)Gal(b1-4)GlcNAc(b1-6)]Gal(b1-4)Glc
# Summary of the method: as §1
# [15] = target: Fuc(a1-2)Gal3S(b1-4)GlcNAc
# Summary of the method: as §1
# [16] = target: Fuc(a1-2)Gal6S(b1-3)GlcNAc
# Summary of the method: as §1
# [17] = target: Fuc(a1-2)Gal6S(b1-3)GlcNAc6S
# Summary of the method: as §1
# Fuc(a1-2)Gal6S(b1-4)Glc = target: Fuc(a1-2)Gal6S(b1-4)Glc
# Summary of the method: as §1
# [18] = target: Fuc(a1-2)Gal6S(b1-4)Glc6S
# Summary of the method: as §1
# Fuc(a1-2)[Gal(a1-3)]Gal = target: Fuc(a1-2)[Gal(a1-3)]Gal
# Summary of the method: as §1
# [19] = target: Fuc(a1-2)[Gal(a1-3)]Gal(b1-3)GalNAc
# Summary of the method: as §1
# [20] = target: Fuc(a1-2)[Gal(a1-3)]Gal(b1-3)GalNAc(b1-3)Gal(a1-4)Gal(b1-4)Glc
# Summary of the method: as §1
binder,measurement,setting,value
B1,glycan array binding signal (z-score),[1],-0.263
same,glycan array binding signal (z-score),[2],-0.315
same,glycan array binding signal (z-score),[3],-0.371
same,glycan array binding signal (z-score),[4],-0.32
same,glycan array binding signal (z-score),[5],-0.34
same,glycan array binding signal (z-score),[6],1.67
same,glycan array binding signal (z-score),[7],-0.391
same,glycan array binding signal (z-score),[8],-0.368
same,glycan array binding signal (z-score),[9],-0.092
same,glycan array binding signal (z-score),[10],-0.12
same,glycan array binding signal (z-score),[11],-0.418
same,glycan array binding signal (z-score),[12],-0.332
same,glycan array binding signal (z-score),[13],1.8
same,glycan array binding signal (z-score),[14],-0.398
same,glycan array binding signal (z-score),[15],-0.335
same,glycan array binding signal (z-score),[16],-0.361
same,glycan array binding signal (z-score),[17],-0.367
same,glycan array binding signal (z-score),Fuc(a1-2)Gal6S(b1-4)Glc,-0.377
same,glycan array binding signal (z-score),[18],-0.354
same,glycan array binding signal (z-score),Fuc(a1-2)[Gal(a1-3)]Gal,-0.362
same,glycan array binding signal (z-score),[19],-0.322
same,glycan array binding signal (z-score),[20],-0.505
